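Values below derive from 48-hour exposures of cells grown in 96-well plates, with endpoints linearly interpolated between the two concentrations bracketing the appropriate inhibition level. GI50 = concentration required for 50% inhibition of growth.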 Certain results were filed several times, with different values. This is not the full list of results. An entry can have further records. For some assays here: Records of one sample usually come from different ranges of test concentrations, which the source does not state; a value can be the end of its range. For some assays here: The records of an entry are repeats (runs, samples, wells, individuals or studies). Marks in square brackets tell the records apart. Letters hold for one entry only.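 Definition used: TGI = concentration required for complete inhibition of growth.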
Legend:
Test in all cases: inhibition of tumour cell growth, NCI panel, 48 h
HCC-2998 colon = tested on: HCC-2998 colon
HL-60(TB) leukemia = tested on: HL-60(TB) leukemia
HOP-92 NSCLC = tested on: HOP-92 NSCLC
SR leukemia = tested on: SR leukemia
MCF7 breast = tested on: MCF7 breast
UACC-62 melanoma = tested on: UACC-62 melanoma
SK-MEL-5 melanoma = tested on: SK-MEL-5 melanoma
HT29 colon = tested on: HT29 colon
NCI-H522 lung = tested on: NCI-H522 lung
SK-OV-3 ovarian = tested on: SK-OV-3 ovarian
NCI/ADR-RES ovarian = tested on: NCI/ADR-RES ovarian
BT-549 breast = tested on: BT-549 breast
786-0 renal = tested on: 786-0 renal
CCRF-CEM leukemia = tested on: CCRF-CEM leukemia
NCI-H460 lung = tested on: NCI-H460 lung
IGROV1 ovarian = tested on: IGROV1 ovarian
OVCAR-5 ovarian = tested on: OVCAR-5 ovarian
SN12C renal = tested on: SN12C renal
OVCAR-4 ovarian = tested on: OVCAR-4 ovarian
KM12 colon = tested on: KM12 colon
SK-MEL-2 melanoma = tested on: SK-MEL-2 melanoma
SW-620 colon = tested on: SW-620 colon
HOP-62 NSCLC = tested on: HOP-62 NSCLC
EKVX NSCLC = tested on: EKVX NSCLC
CAKI-1 renal = tested on: CAKI-1 renal
MALME-3M melanoma = tested on: MALME-3M melanoma
UACC-257 melanoma = tested on: UACC-257 melanoma
NCI-H23 lung = tested on: NCI-H23 lung
U251 CNS = tested on: U251 CNS
SF-295 CNS = tested on: SF-295 CNS
COLO 205 colon = tested on: COLO 205 colon
M14 melanoma = tested on: M14 melanoma
NCI-H226 lung = tested on: NCI-H226 lung
HCT-15 colon = tested on: HCT-15 colon
A549 NSCLC = tested on: A549 NSCLC
PC-3 prostate = tested on: PC-3 prostate
MDA-MB-231 breast = tested on: MDA-MB-231 breast
OVCAR-8 ovarian = tested on: OVCAR-8 ovarian
UO-31 renal = tested on: UO-31 renal
MOLT-4 leukemia = tested on: MOLT-4 leukemia
RPMI-8226 leukemia = tested on: RPMI-8226 leukemia
LOX IMVI melanoma = tested on: LOX IMVI melanoma
SF-268 CNS = tested on: SF-268 CNS

SMILES: Cc1cn(-c2cc(NC(=O)c3ccc(C)c(Nc4nccc(-c5cccnc5)n4)c3)cc(C(F)(F)F)c2)cn1
- GI50 (HCC-2998 colon): 947 nM [sample A, mean of 2 tests] and > 10 µM [sample B, 1 test]
- GI50 (HL-60(TB) leukemia): 1.18 µM [sample A, mean of 2 tests] and 3.19 nM [sample B, 1 test]
- TGI (HL-60(TB) leukemia): 19.7 µM [sample A, mean of 2 tests] and 1.49 µM [sample B, 1 test]
- GI50 (HOP-92 NSCLC): > 100 µM [sample A, 1 test] and 3.08 µM [sample B, 1 test]

SMILES: COC(=O)[C@@H](C)C[C@H](Cc1ccccc1)NC(=O)c1csc([C@@H](C[C@H](C(C)C)N(C)C(=O)[C@@H](NC(=O)[C@H]2CCCCN2C)C2CC2)OC(C)=O)n1
- GI50 (SR leukemia): 0.0985 nM and 1.65 nM
- GI50 (MCF7 breast): 0.0442 nM and 1.65 nM
- GI50 (UACC-62 melanoma): 0.141 nM and 1.65 nM
- GI50 (SK-MEL-5 melanoma): 0.146 nM and 1.65 nM
- GI50 (HOP-92 NSCLC): 0.319 nM and 9.05 µM

SMILES: COc1ccc2c(c1)C(=O)c1c-2n(CCCI)c(=O)c2cc([N+](=O)[O-])ccc12
- TGI (HT29 colon): 2.21 µM and > 100 µM
- GI50 (NCI-H522 lung): 413 nM and 6.23 µM
- TGI (SK-OV-3 ovarian): 2.56 µM and > 100 µM
- TGI (NCI/ADR-RES ovarian): 3.04 µM and > 100 µM
- TGI (MCF7 breast): 338 nM and > 100 µM
- TGI (BT-549 breast): 397 nM and 15.2 µM
- TGI (786-0 renal): 298 nM and 12.7 µM
- TGI (CCRF-CEM leukemia): 193 nM and 11.1 µM
- TGI (NCI-H460 lung): 374 nM and 10.2 µM
- GI50 (IGROV1 ovarian): 8.86 µM and 399 nM
- GI50 (OVCAR-5 ovarian): 288 nM and 3.66 µM
- TGI (SN12C renal): 2.17 µM and > 100 µM
- TGI (HOP-92 NSCLC): 1.12 µM and 27.5 µM

SMILES: S=P(N1CC1)(N1CC1)N1CC1
- TGI (OVCAR-4 ovarian): 44.3 µM, 439 µM, 543 µM
- TGI (KM12 colon): 62.2 µM, 424 µM, 663 µM
- TGI (SK-MEL-2 melanoma): 47.5 µM, 440 µM, 734 µM
- TGI (SW-620 colon): 58.9 µM, 667 µM, 739 µM
- TGI (HOP-62 NSCLC): 20.6 µM, 219 µM, 673 µM
- TGI (EKVX NSCLC): 35.7 µM, 597 µM, 701 µM
- TGI (CAKI-1 renal): 72.4 µM, 432 µM, 838 µM
- TGI (HCC-2998 colon): 37.2 µM, 252 µM, 395 µM
- TGI (MALME-3M melanoma): 29.2 µM, 326 µM, 590 µM
- TGI (UACC-257 melanoma): 60 µM, 394 µM, 616 µM
- TGI (NCI-H23 lung): 24.7 µM, 237 µM, 526 µM
- TGI (U251 CNS): 41.3 µM, 262 µM, 547 µM
- TGI (UACC-62 melanoma): 24.2 µM, 149 µM, 396 µM
- TGI (SF-295 CNS): 45.7 µM, 334 µM, 555 µM
- TGI (COLO 205 colon): 42.7 µM, 353 µM, 591 µM
- TGI (HL-60(TB) leukemia): 40.4 µM, 379 µM, 31.7 µM
- TGI (OVCAR-5 ovarian): 50.7 µM, 385 µM, 705 µM
- TGI (SN12C renal): 72.9 µM, 484 µM, 891 µM
- TGI (M14 melanoma): 33 µM, 318 µM, 708 µM
- TGI (SK-MEL-5 melanoma): 36.2 µM, 241 µM, 367 µM
- TGI (NCI-H226 lung): 37.9 µM, 342 µM, 561 µM
- TGI (HCT-15 colon): 37.4 µM, 534 µM, 455 µM
- TGI (A549 NSCLC): 45.2 µM, 286 µM, 573 µM

SMILES: CC(=O)Nc1ccc(/C=C/C(=O)N2CC(CCl)c3c2cc(N)c2ccccc32)cc1 (stereo not given)
- TGI (PC-3 prostate): 53.1 nM and > 100 µM
- TGI (MDA-MB-231 breast): 98.2 nM and 1.55 µM
- TGI (OVCAR-5 ovarian): 227 nM and 2.32 µM
- TGI (A549 NSCLC): 13.3 nM and 272 nM

SMILES: C/C(=C\c1csc(C)n1)[C@@H]1C[C@@H]2O[C@]2(C)CCC[C@H](C)[C@H](O)[C@@H](C)C(=O)C(C)(C)[C@@H](O)CC(=O)O1
- TGI (OVCAR-8 ovarian): < 0.1 nM and > 100 µM
- TGI (SK-OV-3 ovarian): < 0.1 nM and 50 µM
- TGI (MDA-MB-231 breast): < 0.1 nM and > 100 µM
- TGI (UO-31 renal): 1.62 nM and > 100 µM
- TGI (NCI/ADR-RES ovarian): 0.112 nM and 10.6 nM
- TGI (MOLT-4 leukemia): 272 nM and > 100 µM
- TGI (RPMI-8226 leukemia): 0.119 nM and > 100 µM
- TGI (BT-549 breast): 808 nM and > 100 µM
- TGI (CAKI-1 renal): 151 nM and > 100 µM
- TGI (UACC-257 melanoma): 812 nM and > 100 µM
- TGI (UACC-62 melanoma): 5.61 nM and 56.3 µM
- TGI (M14 melanoma): 4.38 nM and 23.4 µM
- TGI (SK-MEL-5 melanoma): < 0.1 nM and 13 µM
- TGI (LOX IMVI melanoma): 0.219 nM and > 100 µM
- TGI (SF-268 CNS): 266 nM and > 100 µM
- TGI (NCI-H226 lung): 0.772 nM and 678 nM

— PubChem BioAssay (NCI)
